Laboratory results: publication PMC4336329 (PLoS ONE, 2015)
In all, about 310,000 compounds went through this assay and about 14,000 (4.5%) showed an effect of 50% or more. Effects have a minus sign here. This is one part of the list.

target: human ether-à-go-go-related gene (hERG) potassium channel (human, UniProt Q12809); assay: primary screen, population patch clamp on CHO cells stably expressing hERG
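Note: peak tail current of the secondary pulse compared with the same well before compound.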

Sequence of human ether-à-go-go-related gene (hERG) potassium channel (Q12809 whole entry, looked up): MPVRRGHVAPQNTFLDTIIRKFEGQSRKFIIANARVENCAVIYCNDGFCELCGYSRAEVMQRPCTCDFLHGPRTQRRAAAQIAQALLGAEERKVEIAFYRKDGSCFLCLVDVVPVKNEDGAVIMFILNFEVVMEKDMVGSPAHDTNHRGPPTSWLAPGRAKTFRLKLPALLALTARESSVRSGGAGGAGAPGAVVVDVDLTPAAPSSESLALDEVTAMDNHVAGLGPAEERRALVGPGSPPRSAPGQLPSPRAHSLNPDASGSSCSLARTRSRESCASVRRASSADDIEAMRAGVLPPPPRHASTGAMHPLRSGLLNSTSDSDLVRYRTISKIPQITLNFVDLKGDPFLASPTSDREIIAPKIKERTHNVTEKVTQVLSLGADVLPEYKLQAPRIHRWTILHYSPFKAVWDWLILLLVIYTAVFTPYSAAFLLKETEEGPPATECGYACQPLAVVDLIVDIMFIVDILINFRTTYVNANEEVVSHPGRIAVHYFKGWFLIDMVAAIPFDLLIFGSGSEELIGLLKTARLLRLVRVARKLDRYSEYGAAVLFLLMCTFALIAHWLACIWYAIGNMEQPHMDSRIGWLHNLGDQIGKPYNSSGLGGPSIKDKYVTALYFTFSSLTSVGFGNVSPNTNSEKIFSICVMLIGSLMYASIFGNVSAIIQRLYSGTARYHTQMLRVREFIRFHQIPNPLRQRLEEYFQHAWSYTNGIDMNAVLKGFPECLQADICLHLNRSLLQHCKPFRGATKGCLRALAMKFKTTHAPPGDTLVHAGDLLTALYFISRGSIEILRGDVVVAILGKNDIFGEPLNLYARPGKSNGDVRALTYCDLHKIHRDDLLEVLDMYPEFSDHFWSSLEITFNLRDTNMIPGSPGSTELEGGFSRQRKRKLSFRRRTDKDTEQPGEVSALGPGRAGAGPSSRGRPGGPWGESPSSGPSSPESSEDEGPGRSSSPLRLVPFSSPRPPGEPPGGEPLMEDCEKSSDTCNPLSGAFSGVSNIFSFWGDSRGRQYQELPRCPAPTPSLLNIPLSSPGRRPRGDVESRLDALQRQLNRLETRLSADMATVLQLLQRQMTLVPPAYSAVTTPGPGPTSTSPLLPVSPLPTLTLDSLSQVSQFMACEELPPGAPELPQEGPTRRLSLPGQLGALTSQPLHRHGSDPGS

Row | Compound | hERG current change (%, negative = inhibition) at 10uM
1 | CCOCC(=O)Nc1ccc([N+](=O)[O-])cc1Cl | -8.53%
2 | N#Cc1ccncc1S(=O)c1ccc(Cl)cc1 (centres unmarked) | 11.6%
3 | Cc1ccc(-c2nn(-c3ccccc3)cc2/C=C/C(=O)OCC(=O)NC2CC2)o1 | 10.2%
4 | CCOC(=O)N1CCC(NC(=O)CCN2C(=O)C3C4C=CC(C4)C3C2=O)CC1 (centres unmarked) | 5.1%
5 | [O-]/[N+](=C/c1cccnc1)c1ccc(Br)cc1 | 0.388%
6 | O=C(Cc1ccccc1)NCC(=O)N1CCCCC1 | 31.7%
7 | Cc1cccc(-c2cccc(NC(=O)C3CCCN(C(=O)c4cccnc4)C3)c2)c1 (centres unmarked) | -47.4%
8 | Cc1cc(/C=C(/C#N)c2cccc(F)c2)c(C)n1-c1cccnc1 | -20.3%
9 | Cc1ccccc1OCC(=O)NCCCNC(=O)c1cccnc1 | 1.33%
10 | CCC1(C)Cc2ccccc2-c2nc(NN)[nH]c(=O)c21 (centres unmarked) | 6.44%
11 | CCOC(=O)C1CCN(C(=O)c2cc3ccccc3oc2=O)CC1 | 7.58%
12 | CC(C)n1c(SCC(=O)Nc2nc3ccccc3s2)nc2c1c(=O)n(C)c(=O)n2C | 26.8%
13 | C=CCNCCOc1ccc(C)cc1[N+](=O)[O-].O=C(O)C(=O)O | -21.7%
14 | COc1cccc(CNC(=O)c2nnn(CC(=O)Nc3ccc(Br)cc3)c2N)c1 | 17.5%
15 | COc1ccc(CCNC(=O)C2CCC(=O)N2S(=O)(=O)c2ccc(C)cc2)cc1 (centres unmarked) | -3.24%
16 | CN1CCN(c2ccc(NC(=O)c3ccc4c(c3)OCO4)cc2)CC1 | -38.3%
17 | CC(C)COC(=O)Nc1ccc(C(=O)O)cc1 | 11%
18 | CN(CC(=O)Nc1cccc2c1CCCC2)S(=O)(=O)c1ccc(Cl)cc1 | 3.71%
19 | O=C(Cn1cnc2sc3c(c2c1=O)CCCC3)NCCCC(=O)N1CCC2(CC1)OCCO2 | -10.5%
20 | O=C(CSc1nc2ccccc2c(=O)[nH]1)N1CCOCC1 | -1.11%
21 | COc1cc(/C=C/C(=O)OCC(=O)NC(=O)NC(C)C)ccc1O | 4.09%
22 | CCOC(=O)c1c(NC2=NS(=O)(=O)c3ccccc32)sc2c1CCC(C)C2 (centres unmarked) | 16.1%

Row | Compound | hERG current change (%, negative = inhibition) at 10uM
23 | CCc1ccc(NC(=O)C(=O)N/N=C(\C)CC(=O)Nc2ccc(OC)cc2)cc1 | -6.2%
24 | Cc1cccc(/C=N\NC(=O)c2ccc(Cl)cc2)c1O | 37.5%
25 | O=[N+]([O-])c1nn(-c2ccc3c(c2)OCCO3)n(O)c1=NCc1ccc(F)cc1 | -23.3%
26 | Cc1ccc(Cn2ccc(-c3cnc(-c4ccccc4)s3)n2)cc1 | 21.2%
27 | O=C(O)c1ccc(NS(=O)(=O)/C=C/c2ccccc2)cc1 | 15%
28 | Cc1ccccc1C(=O)N1CCC(C(=O)OCc2nc(N)nc(Nc3ccccc3)n2)CC1 | -33.6%
29 | Cc1ccc(NC(=O)C(NC2CCCC2)c2ccccc2)cc1Cl (centres unmarked) | -6.03%
30 | COc1ccc(NS(=O)(=O)c2cc(NC(=O)c3cccs3)ccc2N2CCCC2)cc1 | -0.683%
31 | CCN(CC)S(=O)(=O)c1ccc(C(=O)Nc2ccc(C(F)(F)F)n(C)c2=O)cc1 | 25.4%
32 | O=C(COC(=O)c1cncc(Br)c1)Nc1nc(-c2ccc(F)cc2)cs1 | 1.26%
33 | CCc1ccc2[nH]c3nc(SCc4nnc(-c5ccc(C)cc5)o4)nnc3c2c1 | 8.91%
34 | CC(=O)Nc1cccc(C(=O)Nc2ccc(S(=O)(=O)NC3=NCCCCC3)cc2)c1 | 17%
35 | Cc1ccc(NNC(=O)c2cc(C)on2)c(C)c1 | 4.13%
36 | CC1=CC(=O)C2=C(C)C[C@H](O)[C@@H]3[C@H](OC(=O)[C@H]3C)[C@@H]12.O | 11%
37 | Nc1ccccc1SCc1cn2ccccc2n1 | -47.3%
38 | CC1=C(C#N)C(C(F)(F)F)(C(F)(F)F)N=C(c2ccco2)N1 | 4.05%
39 | COc1ccc(-c2nc(-c3ccccc3)nc(Cl)c2C#N)cc1 | 8.56%
40 | CC1(C)CC(=O)C2=C(C1)Oc1ncn(Cc3ccco3)c(=N)c1C2c1ccccc1 (centres unmarked) | -60.8%
41 | CC(C)n1c(NCc2ccc(Cl)cc2)nc2ccccc21 | -1.78%
42 | CCC(C)NC(=O)C1c2ccccc2C(=O)N1Cc1ccccc1 (centres unmarked) | 20.5%
43 | CCCOC1CCCN(Cc2cn(C)nc2-c2ccccc2F)C1 (centres unmarked) | 12.8%
44 | CC1CCC2(CC1)NC(=O)N(CC(=O)NC1(C#N)CCCCC1)C2=O (centres unmarked) | 16.7%
